Counter-ions that a name gives are not always drawn. ± gives the standard deviation of the averaged measurements. The list shows a part of the results. Many values rest on one well or one pass, so single values are uncertain.
Columns and labels:
Test in all cases: log2 surviving fraction relative to plate median (drug vs vehicle, or drug+dl922-947 vs dl922-947 alone); ovarian cancer lines: OVCAR4 is platinum-sensitive while Ov4Cis resists cisplatin and Ov4Carbo carboplatin; higher = more cell survival
Conditions in all cases: compound concentration: 10 uM, 192 h
OVCAR4 = test system: OVCAR4
Ov4Carbo = test system: Ov4Carbo
Ov4Cis = test system: Ov4Cis
[1] = dl922-947 oncolytic adenovirus co-treatment: MOI 10
[2] = dl922-947 oncolytic adenovirus co-treatment: none

| SMILES | log2 surviving fraction (OVCAR4; [1]) | log2 surviving fraction (OVCAR4; [2]) | log2 surviving fraction (Ov4Carbo; [1]) | log2 surviving fraction (Ov4Carbo; [2]) | log2 surviving fraction (Ov4Cis; [1]) | log2 surviving fraction (Ov4Cis; [2]) |
| --- | --- | --- | --- | --- | --- | --- |
| CC1(C)O[C@@H]2[C@@H](CO[C@@]3(COS(N)(=O)=O)OC(C)(C)O[C@@H]23)O1 [Topiramate] | -0.24 ± 0.39 | 0.407 ± 0.34 | -0.784 | -0.108 | -1.8 | 0.444 |
| OCC(CO)N[C@H]1C[C@](O)(CO)[C@@H](O)[C@H](O)[C@H]1O [Voglibose] | 0.14 ± 0.23 | -0.306 ± 0.4 | 0.248 | -0.641 | 0.52 | -0.0689 |
| NCCc1c[nH]cn1 [Histamine Phosphate] | 0.753 ± 0.11 | -0.0927 ± 1.2 | 0.283 | 0.823 | -0.369 | -0.179 |
| CC1(C)S[C@@H]2[C@H](NC(=O)Cc3ccccc3)C(=O)N2[C@H]1C(=O)O [Benzylpenicillin sodium] | 0.0208 ± 0.055 | -0.0185 ± 0.65 | 0.246 | -6.93 | -0.987 | -0.365 |
| CN1CCN(c2c(F)cc3c(=O)c(C(=O)O)cn4c3c2OCN4C)CC1 [Marbofloxacin] | 1.49 ± 0.73 | 0.496 ± 0.53 | 0.857 | 1.25 | -0.352 | 0.798 |
| Nc1ccc(C(=O)O)c(O)c1 [Aminosalicylate sodium] | 0.111 ± 0.65 | 0.043 ± 0.029 | 0.718 | -0.0857 | -0.653 | -0.819 |
| Cc1ncc([N+](=O)[O-])n1CC(C)O (stereo not given) [Secnidazole (Flagentyl)] | -0.247 ± 0.24 | -0.229 ± 0.035 | -0.198 | -0.559 | -0.502 | 0.127 |
| CC(C(=O)O)c1ccc(-c2ccccc2)c(F)c1 (stereo not given) [Flurbiprofen (Ansaid)] | 0.513 ± 0.6 | 0.559 ± 0.018 | 0.307 | -1.51 | 0.842 | 0.488 |
| CN1C(C(=O)Nc2ccccn2)=C(O)c2ccccc2S1(=O)=O [Piroxicam (Feldene)] | -0.161 ± 0.027 | 0.703 ± 0.33 | -0.125 | 0.763 | 0.211 | -0.0485 |
| CCOC(=O)C1=C[C@]2(CC)CCCN3CCc4c(n1c1ccccc41)[C@@H]32 [Vinpocetine (Cavinton)] | -0.00164 ± 0.31 | 0.0448 ± 0.27 | -0.379 | 0.0932 | -0.0497 | 0.13 |
| CC(=O)O[C@]1(C(C)=O)CC[C@H]2[C@@H]3C[C@H](C)C4=CC(=O)CC[C@]4(C)[C@H]3CC[C@@]21C [Medroxyprogesterone acetate] | 1.13 ± 0.05 | 0.713 ± 1.6 | 0.381 | 0.885 | 1.36 | 0.834 |
| CC(S)C(=O)NCC(=O)O (stereo not given) [Tiopronin (Thiola)] | 0.698 ± 0.037 | 0.746 ± 0.35 | 0.0275 | 1.12 | 0.758 | 1.12 |
| CCCCC[C@H](O)/C=C/[C@H]1[C@H](O)CC(=O)[C@@H]1CCCCCCC(=O)O [Alprostadil (Caverject)] | -0.209 ± 1.5 | -0.84 ± 0.16 | -0.322 | -0.903 | -0.162 | -0.293 |
| CNCC[C@H](Oc1cccc2ccccc12)c1cccs1 [Duloxetine HCl (Cymbalta)] | -4.85 ± 2.1 | -2.87 ± 0.39 | -6.93 | -5 | -6.39 | -2.34 |
| CC(C)OC(=O)OCOP(=O)(CO[C@H](C)Cn1cnc2c(N)ncnc21)OCOC(=O)OC(C)C [Tenofovir Disoproxil Fumarate] | -0.243 ± 0.092 | -0.851 ± 0.34 | 0.149 | 0.157 | 0.458 | -0.687 |
| NC[C@@H]1O[C@H](O[C@H]2[C@@H](O)[C@H](O[C@@H]3[C@@H](O)[C@H](N)C[C@H](N)[C@H]3O[C@H]3O[C@H](CO)[C@@H](O)[C@H](O)[C@H]3N)O[C@@H]2CO)[C@H](N)[C@@H](O)[C@@H]1O [Paromomycin Sulfate] | 0.223 ± 0.35 | 0.572 ± 0.21 | -0.0408 | 1.01 | -0.637 | 0.809 |
| COc1ccccc1OCCNCC(O)COc1cccc2[nH]c3ccccc3c12 (stereo not given) [Carvedilol] | -1.82 ± 0.24 | -1.22 ± 0.83 | -2.86 | -0.891 | -4.54 | -1.86 |
| COc1cc2c(cc1OC)C(=O)C(CC1CCN(Cc3ccccc3)CC1)C2 (stereo not given) [Donepezil HCl (Aricept)] | 0.108 ± 0.12 | -0.0493 ± 0.12 | -0.273 | 0.724 | -0.453 | 0.294 |
| O=C(CCCCCCC(=O)Nc1ccccc1)NO [Vorinostat (SAHA)] | -5.23 ± 0.12 | -9.62 ± 3.1 | -4.27 | -10.7 | -5.23 | -12.8 |
| CCCCN(CCCC)CCCOC(=O)c1ccc(N)cc1 [Butacaine] | 0.312 ± 0.34 | 0.651 ± 0.38 | 0.832 | -0.128 | 0.235 | 0.427 |
| CN1c2ccccc2C(NCCCCCCC(=O)O)c2ccc(Cl)cc2S1(=O)=O (stereo not given) [Tianeptine sodium] | 1.13 ± 1.1 | 0.184 ± 0.73 | 1.15 | 0.266 | 1.36 | 1.2 |
| CO[C@H]1/C=C/O[C@@]2(C)Oc3c(C)c(O)c4c(O)c(c5c(nc6cc(C)ccn65)c4c3C2=O)NC(=O)/C(C)=C\C=C\[C@H](C)[C@H](O)[C@@H](C)[C@@H](O)[C@@H](C)[C@H](OC(C)=O)[C@@H]1C [Rifaximin (Xifaxan)] | 1.01 ± 0.69 | -0.373 ± 0.6 | -0.124 | 0.451 | 0.299 | -0.186 |
| Cc1cc(C2CCCCC2)n(O)c(=O)c1 [Ciclopirox (Penlac)] | -5.86 ± 1.1 | -7.82 ± 2.6 | -4.69 | -10.1 | -4.51 | -10.7 |

| SMILES | log2 surviving fraction (OVCAR4; [1]) | log2 surviving fraction (OVCAR4; [2]) | log2 surviving fraction (Ov4Carbo; [1]) | log2 surviving fraction (Ov4Carbo; [2]) | log2 surviving fraction (Ov4Cis; [1]) | log2 surviving fraction (Ov4Cis; [2]) |
| --- | --- | --- | --- | --- | --- | --- |
| COc1ccc([C@@H]2Sc3ccccc3N(CCN(C)C)C(=O)[C@@H]2OC(C)=O)cc1 [Diltiazem HCl (Tiazac)] | -1.05 ± 0.66 | 0.0889 ± 0.16 | -0.498 | -0.0987 | -0.933 | -0.372 |
| CNS(=O)(=O)CCc1ccc2[nH]cc(C3CCN(C)CC3)c2c1 [Naratriptan HCl] | 0.617 ± 0.15 | 0.124 ± 0.11 | -0.297 | -0.0112 | 0.295 | 0.0638 |
| CC(=O)N[C@H]1[C@H]([C@H](O)[C@H](O)CO)OC(C(=O)O)=C[C@@H]1NC(=N)N [Zanamivir (Relenza)] | -0.127 ± 0.33 | 0.456 ± 0.1 | -0.159 | -1.33 | 0.0241 | -0.0979 |
| CC[C@H](C)C(=O)O[C@H]1C[C@H](O)C=C2C=C[C@H](C)[C@H](CC[C@@H](O)C[C@@H](O)CC(=O)O)[C@H]21 [Pravastatin sodium] | -0.154 ± 0.68 | 0.265 ± 0.43 | 0.572 | 0.0614 | -0.0606 | -0.874 |
| CC(C)Cn1cnc2c(N)nc3ccccc3c21 [Imiquimod] | 0.659 ± 0.94 | 3.49 ± 2.8 | 0.887 | 1.43 | 1.08 | 1.15 |
| CC(C)=CC1C(C(=O)OCc2cccc(Oc3ccccc3)c2)C1(C)C (stereo not given) [Phenothrin] | -0.8443 ± 0.0023 | -0.969 ± 0.76 | -0.949 | -1.17 | 0.0513 | -0.85 |
| COc1ccc2c(c1)c(CC(=O)OCC(=O)O)c(C)n2C(=O)c1ccc(Cl)cc1 [Acemetacin (Emflex)] | -0.0171 ± 0.17 | 0.261 ± 0.34 | 0.0791 | -1.4 | 1.29 | 0.957 |
| CCC[C@@H]1C[C@@H](C(=O)N[C@@H]([C@H]2O[C@H](SC)[C@H](O)[C@@H](O)[C@H]2O)[C@H](C)Cl)N(C)C1 [Clindamycin] | -0.957 ± 0.75 | -1.86 ± 1.4 | -1.1 | -0.504 | -1.57 | -2.55 |
| N#CC(c1ccc(Cl)cc1)c1c(Cl)cc(-n2ncc(=O)[nH]c2=O)cc1Cl (stereo not given) [Diclazuril] | -0.301 ± 0.11 | -0.919 ± 0.17 | -0.125 | -0.532 | -0.361 | -1.6 |
| Nc1nc(=O)c2c([nH]1)NCC(CNc1ccc(C(=O)N[C@@H](CCC(=O)O)C(=O)O)cc1)N2C=O (stereo not given in full) [Leucovorin Calcium] | 0.918 ± 0.28 | -0.526 ± 3 | 0.745 | 2.26 | 0.684 | 0.384 |
| CCCCc1ncc(/C=C(\Cc2cccs2)C(=O)O)n1Cc1ccc(C(=O)O)cc1 [Eprosartan Mesylate] | -0.259 ± 0.73 | -0.272 ± 0.49 | 0.739 | -0.341 | 1.29 | 0.323 |
| CC(=O)[C@H]1CC[C@H]2[C@@H]3CC=C4C[C@@H](O)CC[C@]4(C)[C@H]3CC[C@]12C [Pregnenolone] | 0.904 ± 0.32 | 0.693 ± 0.55 | -0.0653 | 0.356 | 1.27 | 1.14 |
| COc1cc(OC)c(C(=O)CCCN2CCCC2)c(OC)c1 [Buflomedil HCl] | -0.493 ± 0.17 | -1.12 ± 0.1 | -0.664 | 0.309 | -0.17 | -2.65 |
| COC(=O)C1=C(C)NC(C)=C(C(=O)OC)C1c1ccccc1[N+](=O)[O-] [Nifedipine (Adalat)] | -0.0633 ± 0.1 | 0.695 ± 0.34 | -0.516 | 0.572 | 0.826 | 0.493 |
| CN1C(C(=O)Nc2ccccn2)=C(O)c2sc(Cl)cc2S1(=O)=O [Lornoxicam (Xefo)] | -0.389 ± 0.98 | 0.251 ± 0.52 | 0.22 | 0.0548 | 0.0069 | -0.622 |
| COc1c2ccoc2cc2oc(=O)ccc12 [Bergapten] | 0.381 ± 0.27 | 0.513 ± 0.31 | 1.16 | 0.732 | 0.36 | 0.925 |
| O=C[C@H](O)[C@@H](O)[C@H](O)CO [Xylose] | -0.00149 ± 0.11 | -0.467 ± 0.47 | 0.568 | -0.124 | -0.745 | -0.692 |
| NCC1(CC(=O)O)CCCCC1 [Gabapentin (Neurontin)] | 0.0601 ± 0.2 | 0.27 ± 0.48 | 0.222 | 0.274 | -0.108 | 0.595 |
| N#Cc1ccc(C(c2ccc(C#N)cc2)n2cncn2)cc1 [Letrozole] | 0.5621 ± 0.0011 | 3.01 ± 3.1 | 0.649 | -6.75 | -0.302 | -0.0497 |
| Cc1cn([C@@H]2C[C@@H](O)[C@H](CO)O2)c(=O)[nH]c1=O [Telbivudine (Sebivo, Tyzeka)] | 0.382 ± 0.25 | 0.6 ± 0.32 | -0.471 | 0.27 | -0.0708 | 0.66 |
| N#CC1(c2ccc(NC(=O)c3cccnc3NCc3ccncc3)cc2)CCCC1 [Apatinib (YN968D1)] | -2.15 ± 0.68 | -1.26 ± 0.77 | -1.88 | -0.585 | -0.942 | -2.91 |
| O=C(O)Cc1ccccc1Nc1c(Cl)cccc1Cl [Diclofenac] | -0.56 ± 0.046 | -0.759 ± 1.3 | 1.41 | 0.51 | 0.429 | 0.0905 |
